The supplement of paper PMC12217912
The list shows a part of the results. The full chains were built here from the parent and the listed change. Inactive controls read about 0.05.

B1: TEV protease; numbered along this chain (parent)
chain: MGESLFKGPRDYNPISSSICHLTNESDGHTTSLYGIGFGPFIITNKHLFRRNNGTLVVQSLHGVFKVKDTTTLQQHLVDGRDMIIIRMPKDFPPFPQKLKFREPQREERICLVTTNFQTKSMSSMVSDTSCTFPSGDGIFWKHWIQTKDGQCGSPLVSTRDGFIVGIHSASNFTNTNNYFTSVPKNFMELLTNQEAQQWVSGWRLNADSVLWGGHKVFMVKPEEPFQPVKEATQL

Variants of: B1
Assay: raw area under fraction-flipped curve 0-4 h after induction (AUC4h, not background-subtracted), DNA-recorder readout of cleavage of the substrate (dimensionless); higher = more cleavage of the substrate by the protease variant
Conditions: temperature: 34 °C; time window: 0-4 h after rhamnose induction
Protocol: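 In vivo DNA recorder in E. coli TOP10(DE3) ΔrhaA at 34 °C. Each TEVp single-site mutant (parent TEVp 0) is paired with a single-site variant of the 7-mer TEVs (canonical ENLYFQ|S). The substrate sits between flexible linkers in a Bxb1-sfGFP-TEVs-SsrA fusion, so cleavage stabilises Bxb1 and speeds flipping of a recombination array, read by NGS. The value is the raw area under the fraction-flipped curve over 0-4 h after rhamnose induction (AUC4h), with ≥20 reads per time point. It is not background-subtracted; inactive controls average about 0.047.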
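Further: Bxb1 expression induced with 0.2% (w/v) L-rhamnose at OD600 near 0.5, cultures sampled hourly, flipped fraction per protease–substrate barcode pair counted by paired-end Illumina sequencing.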

Row | Variant | area with substrate ENLYAQS | area with substrate ENLYCQS | area with substrate ENLYDQS | area with substrate ENLYEQS | area with substrate ENLYGQS | area with substrate ENLYHQS | area with substrate ENLYKQS | area with substrate ENLYMQS | area with substrate ENLYNQS | area with substrate ENLYPQS | area with substrate ENLYQQS | area with substrate ENLYRQS | area with substrate ENLYSQS | area with substrate ENLYWQS | area with substrate ENLYYQS | area with substrate ENLYIQS | area with substrate ENLYTQS | area with substrate ENLYVQS | area with substrate ENLYLQS
1 | S135R | 0.0657 | 0.0719 | 0.0658 | 0.0584 | 0.0658 | 0.0617 | 0.0495 | 0.0564 | 0.0553 | 0.058 | 0.0991 | 0.0638 | 0.0669 | 0.0634 | 0.0582 | – | – | – | –
2 | P222D | 0.0764 | 0.126 | 0.0805 | 0.0605 | 0.0551 | 0.0633 | 0.0529 | 0.0741 | 0.0694 | – | – | 0.0557 | – | 0.071 | 0.0563 | 0.126 | 0.0666 | 0.114 | –
3 | S17A | 0.0513 | 0.0847 | 0.0819 | 0.0622 | 0.0685 | 0.0669 | 0.0689 | 0.0922 | 0.0733 | 0.0742 | 0.052 | 0.095 | 0.0781 | 0.103 | 0.115 | 0.134 | – | 0.105 | 0.0911
4 | W203G | 0.0766 | – | 0.056 | 0.0502 | 0.0636 | 0.0623 | 0.0629 | 0.0602 | 0.0583 | 0.0608 | 0.0723 | 0.0586 | 0.0562 | 0.0518 | 0.0408 | 0.0598 | 0.0674 | 0.0692 | –
5 | V217P | 0.0583 | – | 0.0705 | 0.0646 | 0.0585 | 0.0638 | – | 0.0546 | 0.0615 | 0.0694 | 0.0603 | 0.0583 | 0.0804 | 0.0587 | 0.0586 | 0.0807 | 0.0556 | 0.0615 | –
6 | V217C | 0.0765 | 0.0753 | 0.0621 | 0.0643 | 0.073 | 0.0557 | 0.0458 | 0.0639 | 0.0605 | 0.0635 | 0.06 | 0.0658 | 0.0766 | 0.0662 | – | 0.0982 | 0.0947 | 0.0991 | –
7 | I36H | 0.0531 | – | – | 0.0408 | 0.0384 | 0.056 | 0.0253 | 0.0632 | 0.0682 | 0.0659 | 0.0531 | 0.0378 | – | 0.0364 | – | 0.0448 | 0.0589 | 0.0391 | –
8 | I36S | 0.0652 | – | 0.0702 | 0.0583 | 0.0536 | 0.0573 | 0.0476 | – | 0.0535 | – | 0.0586 | 0.0484 | 0.0646 | 0.0561 | 0.05 | – | 0.033 | – | 0.0634
9 | Q59I | 0.0464 | – | – | – | 0.0579 | 0.0822 | 0.0828 | 0.0977 | 0.0547 | 0.0719 | – | – | – | 0.07 | 0.0542 | 0.126 | 0.0875 | 0.11 | 0.0885
10 | E25N | 0.0784 | – | 0.0601 | 0.0916 | – | 0.0692 | 0.0576 | 0.0938 | 0.0751 | 0.082 | 0.0622 | 0.0611 | – | 0.122 | – | – | 0.0769 | 0.112 | 0.0842
11 | L61W | 0.0911 | – | – | 0.0907 | 0.0561 | 0.0709 | 0.0677 | 0.0909 | 0.0626 | 0.0692 | – | – | 0.0716 | 0.0713 | – | 0.12 | 0.077 | – | –
12 | P14T | 0.0716 | 0.0871 | 0.062 | 0.0677 | 0.0655 | 0.0804 | 0.0632 | 0.0904 | 0.0629 | 0.0584 | 0.0599 | 0.0598 | 0.0596 | 0.0727 | 0.0646 | 0.116 | 0.0659 | 0.112 | –
